Experimental data taken from PubChem BioAssay AID686979 (National Center for Advancing Translational Sciences (NCATS), 2013).
Several values for one entry are separate records, joined by “and”; a condition that tells them apart may be missing. Equal values may be shown once. Screen size: about 420,000 compounds; about 50,000 (12%) were called active. Inconclusive results, whose numbers are uncertain, are shown with a selection of clear calls. Calls come from the whole dose curve; as a rule, active = well fitted inhibition curve with a large enough effect; inconclusive = small, poorly fitted or top-dose-only effect; inactive = flat fitted curve, though single readings scatter. Potencies beside an inconclusive call are fits to weak or partial responses and may not hold up.

Assay: qHTS for Inhibitors of human tyrosyl-DNA phosphodiesterase 1 (TDP1): qHTS in cells in presence of CPT; note: nearly all actives have a fitted effect of over 55% in size
Conditions: chicken DT40 Tdp1-/-;hTDP1 cells + 20 nM CPT, ATP luminescence, 48 h; activity change, negative = growth inhibition: at 46.2 µM (top of the series) unless noted
Procedure, shortened: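 Chicken DT40 Tdp1-/- cells stably complemented with human TDP1 were seeded at 400 cells/well in medium containing 20 nM camptothecin, exposed to pin-transferred compounds, and grown at 37 °C for at least 48 hr. Viability was read as ATP luminescence.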
% is set by controls: 0 for no effect and ±100 for the full control effect; potency is the fitted concentration of half-maximal effect; tags give direction and shape of the fitted curve.

SMILES | Potency | activity change, negative = growth inhibition
CC(C)c1nc2ccc(C(=O)NC(C)c3ccccc3)cc2o1 (stereo unspecified) | inactive | –
Cc1cccc(NC(=O)N2CCCC2C(=O)Nc2ccccc2)c1 (stereo unspecified) | inconclusive: 0.651 µM [inhibitor, single point] | –
Cc1ccc(N2C(=O)c3oc4ccccc4c(=O)c3C2c2cccc(O)c2)nc1 (stereo unspecified) | active: 20.6 µM | –
O=C(C[n+]1cccc2cccc(O)c21)c1ccc(Cl)cc1 | inconclusive: 35.5 µM [inhibitor, single point] | –
COc1cc(S(=O)(=O)Nc2ccc3cn[nH]c3c2)ccc1Cl | inconclusive: 10.3 µM [inhibitor, partial curve] | –
NC(=O)COC(=O)CNC(=O)c1cc(Cl)cc([N+](=O)[O-])c1 | inactive | –
CCc1ccccc1N1CC(c2nc3ccccc3n2CCCCOc2ccccc2)CC1=O (stereo unspecified) | inactive | –
CC(=O)C1=C(C)N(c2ccccc2)C(=O)C1(NS(=O)(=O)c1ccc(N)cc1)C(F)(F)F (stereo unspecified) | inactive | –
COc1cc(SC)ccc1C(=O)Nc1cccc(C)n1 | inconclusive: 29.1 µM [inhibitor, single point] | –
Cc1cc(I)ccc1Nc1nc(NCCN2CCOCC2)nc(N2CCOCC2)n1 | active: 3.16 µM | –
CC1(C(=O)O)CCCN1C(=O)c1cc2ccccc2s1 (stereo unspecified) | inactive | –
CCCCSc1nc2sc3c(c2c(=O)[nH]1)CCC3 | inactive | –
O=C(c1cc(-c2ccc(Br)cc2)on1)N1CCc2ccccc2C1 | inactive | –
COC(=O)c1ccc(COc2ccc(C(C)(C)C)cc2)o1 | inconclusive: 25.9 µM [inhibitor, single point] | –
CCOC(=O)C1(C(=O)OCC)COC(=O)C2(CC)OC21 (stereo unspecified) | inactive | –
Cc1ccc(C)c(NC(=O)CSc2nnc(CCCCCNC(=O)OC(C)(C)C)o2)c1 | inconclusive: 13 µM [inhibitor, partial curve] | –
O=C1CSC(c2ccccc2O)N1Cc1ccccc1 (stereo unspecified) | inconclusive: 18.4 µM [inhibitor, single point] | –
COc1cccc(/C=C/C(=O)Nc2ccc3nc(N4CCN(C)CC4)cc(C)c3c2)c1OC | active: 6.51 µM | –
Cc1ccc(O)c(NC(=O)c2cc3nc4c(c(C(F)(F)F)n3n2)CCc2ccccc2-4)c1 | inconclusive: 16.4 µM [inhibitor, partial curve] | –
COc1ccc(OC)c(NC(=O)c2ccccc2N(Cc2ccccc2)S(C)(=O)=O)c1 | active: 14.6 µM | –
Clc1ccc(-c2cc(C3CCNCC3)[nH]n2)cc1 | active: 23.1 µM | –
O=C(c1cccc(Cl)c1)N1CCC(c2nc3ccccc3[nH]2)CC1 | inactive | –
Oc1ccccc1-c1nc(/C=C/c2ccc(F)cc2)nn1-c1ccccc1 | inconclusive: 29.1 µM [inhibitor, single point] | –
COc1ccccc1NC(=O)N1CCN(c2ccc(F)cc2)CC1 | inactive | –

SMILES | Potency | activity change, negative = growth inhibition
N#Cc1ccc(Oc2ccc(NC(=O)C3CC=CCC3C(=O)O)cc2)cc1 (stereo unspecified) | inactive | –
CC(=O)n1nc(-c2cccc(C)c2)nc1SCC(=O)Nc1ccccc1 | – | inconclusive: -31.6% [inhibitor]
CCn1cc(C(=O)NCCCN2CCCC(C)C2)c(=O)c2cc(S(=O)(=O)N3CCOCC3)ccc21 (stereo unspecified) | inactive | –
CCCN(Cc1cc2cc(C)ccc2[nH]c1=O)C(=O)c1ccccn1 | inconclusive: 29.1 µM [inhibitor, single point] | –
CCN1CC=C2C(C#N)=C(N)C(C#N)(C#N)[C@H](c3ccoc3)[C@H]2C1 | inconclusive: 25.9 µM [inhibitor, single point] | –
CCOc1ccc(S(=O)(=O)N(CC)CC(=O)NCc2cccnc2)cc1C | inconclusive: 1.84 µM [inhibitor, full curve, poor fit] | –
Cc1ccc(CNC(=O)C2CCCN(c3ncnc4c3nc3n4CCCCC3)C2)cc1 (stereo unspecified) | inconclusive: 23.1 µM [inhibitor, single point] | –
COc1ccccc1N(C)S(=O)(=O)c1ccc(C(=O)OCC(N)=O)cc1 | inactive | –
CN1CCc2c(sc3nc(SCC(N)=O)n(-c4ccc(Cl)cc4)c(=O)c23)C1 | inconclusive: 25.9 µM [inhibitor, partial curve, poor fit] | –
CC(C)(C)OC(=O)N1CCC2(CC1)Oc1ccc(F)cc1C(=O)C21CC(c2cccnc2)=NO1 (stereo unspecified) | inconclusive: 16.4 µM [inhibitor, single point] | –
N=c1ncn(CC(O)CO)c2nc(N3CCOCC3)[nH]c12 (stereo unspecified) | inactive | –
COc1ccc(-c2nc(SCCOc3ccccc3Cl)n3[nH]c(=O)cc3n2)cc1 | active: 20.6 µM | –
Cc1cc(NC(=O)c2cc(-c3cccs3)on2)nn1Cc1ccc(Cl)cc1 | inconclusive: 16.4 µM [inhibitor, single point] | –
O=C(c1ccc(S(=O)(=O)N2CCCCCC2)cc1)N1CCN(c2ccccn2)CC1 | inconclusive: 29.1 µM [inhibitor, single point] | –
C#CCOC(=O)Nc1ccc(OCC(F)(F)F)nc1 | active: 9.2 µM | –
COC(=O)c1ccc(C23CC4(C2)[C@H](CN(C)[C@@H]4c2ccccc2)C3c2ccccc2)cc1 (stereo partly specified) | inconclusive: 29.1 µM [inhibitor, single point] | –
COc1ccc(NC(=O)N(C)C[C@H]2Oc3ccc(NC(=O)c4ccncc4)cc3C(=O)N([C@H](C)CO)C[C@@H]2C)cc1 | inactive | –
COc1cc(NC(=O)CSc2ncccc2C(=O)OC(C)C)cc(OC)c1 | inconclusive: 8.91 µM [inhibitor, partial curve, poor fit] and inconclusive: 13 µM [inhibitor, partial curve] | –
CC(C)c1csc(CN2CCC(n3nccc3NC(=O)Cc3ccccc3)CC2)n1 | inconclusive: 25.9 µM [inhibitor, single point] | –
O=C(/C=C/c1ccccc1)Nc1sc2c(c1C(=O)O)CCC2 | inconclusive: 8.2 µM [inhibitor, partial curve, poor fit] | –
CCCCCCSc1ccc([C@H]2N[C@@](Cc3ccccc3)(C(=O)OC)[C@H]3C(=O)N(C)C(=O)[C@@H]23)cc1 | inconclusive: 16.4 µM [inhibitor, single point] | –
O=C(NCc1cc(C(F)(F)F)ccc1Cl)c1cccc2c1C(=O)c1ccc(N3CCC(N4CCCCC4)CC3)cc1S2(=O)=O | active: 5.17 µM | –
CSCC[C@H](NC(=O)N1CCn2c1nc1ccccc12)C(=O)NCc1ccc2c(c1)OCO2 | inconclusive: 18.4 µM [inhibitor, single point] | –
CC(C)CC(c1nnnn1Cc1ccccc1)N1CCN(C(=O)c2ccco2)CC1 (stereo unspecified) | inconclusive: 14.6 µM [inhibitor, single point] | –

SMILES | Potency | activity change, negative = growth inhibition
COc1ccc(COC(=O)c2sc3nc4n(c(=O)c3c2C)CCC4)cc1 | inactive | –
Cc1nn(C)cc1[C@@H]1C[C@H]2CN(Cc3cccc(Cl)c3)C(=O)[C@]23CCCN13 | inactive | –
Cc1cccc(-n2ncc3c(NC4CCCCC4)ncnc32)c1 | inconclusive: 29.1 µM [inhibitor, single point] | –
CC(=O)c1ccc(Nc2nc(C(N)CC(C)C)cs2)cc1 (stereo unspecified) | inconclusive: 18.4 µM [inhibitor, single point] | –
O=C(c1cccc(F)c1F)N1CCCc2ccccc21 | inconclusive: 29.1 µM [inhibitor, single point] | –
COCCSc1ccccc1C(=O)Nc1ccc(Br)cc1 | inconclusive: 18.4 µM [inhibitor, single point] | –
CCCCC(=O)N(C)c1c(C)nc2ccc(C(=O)NCCOc3ccc(OC)cc3)cn12 | inactive | –
CC(=O)c1cc2c(cc1N/C(=N/S(=O)(=O)c1ccc(C)cc1)c1ccc(F)cc1)OCO2 | inactive | –
Cc1cccn2c(=O)c3cc(C(=O)NC4CCCC4)c(=N)n(C4CCCCC4)c3nc12 | inactive | –
O=C(c1ccco1)N1N=C2CCCCCC2C1(O)C(F)(F)F (stereo unspecified) | inactive | –
C=CCN=C1N[C@@H](c2ccccc2)C(C(=O)OC)=C(C)N1CC | inconclusive: 29.1 µM [inhibitor, single point] | –
Cc1cc2cc(CN(CCN3CCOCC3)C(=O)Nc3ccccc3F)c(=O)[nH]c2cc1C | inconclusive: 20.6 µM [inhibitor, single point] | –
COc1ccc(S(=O)(=O)N2CCN(CCCOc3ccc(F)cc3)CC2)cc1OC | inconclusive: 29.1 µM [inhibitor, partial curve, poor fit] | –
Cc1ccc(Cl)cc1N(C(=O)c1csnn1)C(C(=O)NC1CCCC1)c1ccco1 (stereo unspecified) | inactive | –
COc1cccc(CNC(=O)C2CCN(c3nnc(-n4c(C)ccc4C)s3)CC2)c1OC | inconclusive: 29.1 µM [inhibitor, partial curve, poor fit] | –
COc1cc(NC(=O)CN2CCN(C(=O)C3CCCO3)CC2)c(OC)cc1Cl (stereo unspecified) | inactive | –
Cc1cc(C(=O)Nc2ccc(F)cc2C)n(-c2ccccc2)n1 | inconclusive: 29.1 µM [inhibitor, single point] | –
O=C1C(=O)N(c2ccccc2)c2ccccc21 | inconclusive: 20.6 µM [inhibitor, single point] | –
O=S1(=O)c2ccccc2N(Cc2cccc(Cl)c2)c2ccccc21 | inconclusive: 29.1 µM [inhibitor, single point] | –
COc1ccc(-c2nc(CS(=O)CC(=O)N3CCc4ccccc4C3)c(C)o2)cc1 (stereo unspecified) | active: 16.4 µM | –
CCc1nc2ccccc2c(C(=O)OCC(=O)Nc2cccc(S(=O)(=O)NC3=NCCCCC3)c2)c1C | active: 16.4 µM | –
CCOc1ccc(-c2nc(CSCC(=O)NCc3ccc(Cl)cc3)c(C)o2)cc1 | inconclusive: 20.6 µM [inhibitor, single point] | –
Cc1ccccc1NC(=O)Cc1nc(-c2c[nH]c(C(=O)N3CCCC3)c2)cs1 | active: 18.4 µM | –
